The values below come from paper PMC4336329 (PLoS ONE, 2015).

The campaign covered roughly 310,000 compounds. About 14,000 (4.5%) showed an effect of 50% or more. The effect is printed as a negative number. Some of the results follow.
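Note: peak tail current of the secondary pulse compared with the same well before compound.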

In this assay the target is human ether-à-go-go-related gene (hERG) potassium channel (human, UniProt Q12809). In words: primary screen, population patch clamp on CHO cells stably expressing hERG.
human ether-à-go-go-related gene (hERG) potassium channel, sequence (Q12809 whole entry, looked up): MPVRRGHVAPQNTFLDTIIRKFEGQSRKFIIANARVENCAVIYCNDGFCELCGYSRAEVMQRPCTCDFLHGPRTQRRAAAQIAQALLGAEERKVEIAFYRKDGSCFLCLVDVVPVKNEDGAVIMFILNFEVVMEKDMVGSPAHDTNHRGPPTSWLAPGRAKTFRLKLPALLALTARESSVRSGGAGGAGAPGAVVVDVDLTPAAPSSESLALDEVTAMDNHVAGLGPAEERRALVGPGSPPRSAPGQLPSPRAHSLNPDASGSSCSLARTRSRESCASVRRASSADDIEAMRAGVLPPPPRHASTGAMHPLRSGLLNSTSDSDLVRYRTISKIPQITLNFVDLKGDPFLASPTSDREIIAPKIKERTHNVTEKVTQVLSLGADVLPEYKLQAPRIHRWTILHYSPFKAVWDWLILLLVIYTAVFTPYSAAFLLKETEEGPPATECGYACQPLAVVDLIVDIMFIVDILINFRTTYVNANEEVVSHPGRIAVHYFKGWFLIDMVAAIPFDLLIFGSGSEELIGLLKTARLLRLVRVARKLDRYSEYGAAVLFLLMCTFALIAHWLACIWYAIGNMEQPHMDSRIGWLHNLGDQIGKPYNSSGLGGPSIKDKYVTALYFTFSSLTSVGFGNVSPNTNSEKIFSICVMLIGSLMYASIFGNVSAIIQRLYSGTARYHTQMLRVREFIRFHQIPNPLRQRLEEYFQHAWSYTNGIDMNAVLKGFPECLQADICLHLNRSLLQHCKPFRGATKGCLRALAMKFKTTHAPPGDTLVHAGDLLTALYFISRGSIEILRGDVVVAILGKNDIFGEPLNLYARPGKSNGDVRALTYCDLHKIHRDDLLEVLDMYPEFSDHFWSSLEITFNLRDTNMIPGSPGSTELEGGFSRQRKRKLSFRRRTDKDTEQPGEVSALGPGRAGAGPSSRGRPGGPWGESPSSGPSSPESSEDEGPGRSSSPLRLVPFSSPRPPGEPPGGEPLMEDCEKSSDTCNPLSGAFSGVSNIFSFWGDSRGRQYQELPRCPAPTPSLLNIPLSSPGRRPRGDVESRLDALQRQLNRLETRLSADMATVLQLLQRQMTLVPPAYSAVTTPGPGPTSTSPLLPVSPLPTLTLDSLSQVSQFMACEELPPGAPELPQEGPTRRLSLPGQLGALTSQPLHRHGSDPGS
As to `O=C(COc1ccccc1F)Nc1nnc(C2CCCC2)s1`, the “hERG current change (%, negative = inhibition) at 10uM” value came out at 17.3%.
In the case of `COc1cccc(C(=O)COC(=O)CCCC(=O)NC2CCCCC2)c1`, the “hERG current change (%, negative = inhibition) at 10uM” value is 1.29%.
Regarding `COc1ccc(-c2nnc(SCc3nnc(-c4ccccc4)o3)n2-c2ccccc2)cc1`, the “hERG current change (%, negative = inhibition) at 10uM” value is -9.78%.
For `CCCC(c1nnnn1CCC(C)C)N1CCC(C(N)=O)CC1.Cl` (centres unmarked) the value was 1.29%; for `Cc1cccc(Nc2nc(N)c([N+](=O)[O-])c(NCCO)n2)c1`, -33.8%.
Turning to `CCOC(=O)c1cc(C#N)c(Oc2ccccc2OC)nc1-c1ccccc1`, the “hERG current change (%, negative = inhibition) at 10uM” value is on record as 11.3%.
For `CCCC(C(=O)NCc1ccccc1)N(C(=O)Cn1nnc(-c2cccs2)n1)c1ccc2c(c1)OCCO2` (centres unmarked) the value was 17.2%; for `CCOC(=O)c1nnn2c1nc(N1CCOCC1)c1ccccc12`, -20.4%; for `Br.CCn1c(=N)n(CC(=O)c2ccc(Br)s2)c2ccccc21`, -69.3%.
Take `Cc1cccc(-n2c(-c3ccncc3)n[nH]c2=S)c1`: the “hERG current change (%, negative = inhibition) at 10uM” value stood at 16%.
With `CSc1ccc(C2NC(=O)c3ccccc3N2)cc1` (centres unmarked), the “hERG current change (%, negative = inhibition) at 10uM” value was 5.54%.
For `Cc1ccc2cc(CCNC(=O)c3cccs3)c(=O)[nH]c2c1C` the value was -0.17%.
For `CCN(CC)S(=O)(=O)c1ccc(S(=O)(=O)N2CCC(C(=O)NC3CCN(Cc4ccccc4)CC3)CC2)cc1` the value was 14.8%; for `Cc1ccc2oc(=O)c3cnn(CC(=O)NC4CCC(C)CC4)c3c2c1` (centres unmarked), -4.77%; for `C=CCn1c(SCc2ccc(C(=O)O)cc2)nc2sc(C)c(C)c2c1=O`, -4.36%.
Regarding `OCCN1CCN(Cc2ccc3ccccc3c2)CC1`, the “hERG current change (%, negative = inhibition) at 10uM” value came to 16.3%.
In the case of `CSc1nc2ccc3nc(NC(=O)c4ccc(Cl)s4)sc3c2s1`, the “hERG current change (%, negative = inhibition) at 10uM” value was found to be 1.39%.
As for `O=C(Nc1ccc2c(c1)OCO2)C1CC(c2ccccc2O)=NO1` (centres unmarked), the “hERG current change (%, negative = inhibition) at 10uM” value amounted to 13.9%.
With `CCCCN(CCCNC(=O)c1ccc(CS(=O)(=O)c2c(Cl)cccc2Cl)o1)Cc1ccccc1` the figure was -66.1%; with `CCOC(=O)C1=NN(C(=O)c2ccco2)C2(CC2)C1`, -7.7%; with `O=C(Cc1c[nH]c2ccccc12)NC1(C(=O)NC2CCCC2)CCCCC1`, 14.2%.
Consider `CC(C)c1nnc(-c2ccc(Cl)cc2)c(N(C)C)n1`, for which the “hERG current change (%, negative = inhibition) at 10uM” value is on record as -15%.
For the compound `COc1cccc(NC(=O)N(CCCN2CCOCC2)C(C)c2cc3ccccc3o2)c1` (centres unmarked), the “hERG current change (%, negative = inhibition) at 10uM” value is listed as -62.5%.
With `Cc1cccc(NC(=O)CSc2nnc(NC(=O)c3ccco3)s2)c1` the figure was 19.3%.
With `CC1Cc2ccccc2N1C(=O)C1CCN(S(=O)(=O)c2cccs2)CC1` (centres unmarked) the figure was 6.09%; with `CCn1c(COC(=O)CNC(=O)c2cc(OC)c(OC)c(OC)c2)nc2cc(S(=O)(=O)N(C)C)ccc21`, -27.9%; with `CCN1C(=NCCN2CCOCC2)N[C@@H](c2ccccc2)C(C(=O)OC)=C1C`, 7.6%.
For `O=C(O)CCCC(=O)N1CCN(c2nc(-c3ccccc3Cl)c3cc(Br)ccc3n2)CC1` the value was -0.347%; for `COc1cc2c(cc1OC)CN(C(=O)CSc1nnc3scc(-c4ccccc4)n13)CC2`, -9.96%; for `C=CCS/C(=N\n1cnc2ccccc2c1=O)N(CC)CC`, 12.5%.
As for `COc1ccccc1CNS(=O)(=O)c1cc(C)ccc1OC`, the “hERG current change (%, negative = inhibition) at 10uM” value was 9.32%.
With `Cc1cc(C(=O)COC(=O)c2ccc[nH]c2=O)c(C)n1C` the figure was 3.61%.
With `CC(C)c1ccccc1NC(=S)NCc1ccncc1` the figure was 12.6%; with `COc1ccc(NS(=O)(=O)c2ccc(O)c(C(=O)OCC(=O)N3CC(C)OC(C)C3)c2)cc1` (centres unmarked), 4.92%.
For the compound `CCCNC(=O)c1onc(CSc2ccc(Cl)cc2)c1C(=O)NCC1CC1`, the “hERG current change (%, negative = inhibition) at 10uM” value is on record as -8.67%.
With `C/C(=C\c1ccccc1)C(=O)N1CCN(c2cccc(C(F)(F)F)c2)CC1` the figure was -9.89%; with `O=c1[nH]c(=O)n(C2CCCO2)cc1F` (centres unmarked), -1.29%; with `Cc1cccc(CN2CCC(C(=O)Nc3cccc(-c4cscn4)c3)CC2)n1`, -48.2%.
Take `O=C(C1CCC(CNS(=O)(=O)c2cccs2)CC1)N1CCN(c2ccc(Cl)cc2)CC1` (centres unmarked): the “hERG current change (%, negative = inhibition) at 10uM” value is given as -14.1%.
For `CC(O)CNc1nc(Cl)c(C#N)s1` (centres unmarked) the value was 2.88%; for `COc1ccc(CNC(=O)CCS(=O)(=O)c2ccc3c(c2)NC(=O)C(C)S3)cc1` (centres unmarked), 9.08%; for `CCOc1ccc(-c2csc(NC(=O)C3CCCO3)n2)cc1` (centres unmarked), 4.35%.
Consider `O=C(NC1CCCCC1)N1CCN(Cc2nc3ccccc3c(=O)[nH]2)CC1`, for which the “hERG current change (%, negative = inhibition) at 10uM” value is -24.3%.
With `CN(C)S(=O)(=O)c1ccc(Cl)c(C(=O)OCC(=O)NNC(=O)c2cccs2)c1` the figure was 3.65%.
